Experimental data: PubChem BioAssay AID686978 (National Center for Advancing Translational Sciences (NCATS), 2013)
Out of some 420,000 compounds screened, about 64,000 (15%) were called active. Inconclusive results, whose numbers are uncertain, are shown with a selection of clear calls. Calls come from the whole dose curve; as a rule, active = well fitted inhibition curve with a large enough effect; inconclusive = small, poorly fitted or top-dose-only effect; inactive = flat fitted curve, though single readings scatter. Potencies of inconclusive entries are left out as doubtful fits.
% is set by controls: 0 for no effect and ±100 for the full control effect; potency is the fitted concentration of half-maximal effect; tags give direction and shape of the fitted curve.

Assay: qHTS for Inhibitors of human tyrosyl-DNA phosphodiesterase 1 (TDP1): qHTS in cells in absence of CPT; note: nearly all actives have a fitted effect of over 55% in size
Details: DT40 Tdp1-/- hTDP1 cells, no CPT, ATP luminescence, 48 h; activity change, negative = growth inhibition: at 46.2 µM (top of the series) unless noted
Method in brief: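 Camptothecin absent (DMSO only). Human TDP1-complemented DT40 knockout cells, 400 cells/well, 37 °C for minimum 48 hr; ATP measured via CellTiter-Glo, 30 min dark incubation, luminescence.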
In the case of `CCc1ccc(OCC(=O)N/N=C(\C)c2ccc(O)cc2O)cc1`, the Potency is reported as active: 2.59 µM.
In the case of `Cc1ccc(-n2nnnc2SC(C)C(=O)Nc2ccc(Cl)cn2)cc1` (centres undefined), the Potency is reported as inconclusive [inhibitor, partial curve, poor fit].
For `COc1ncc2nc(CCc3ccccc3)c(=O)n(-c3ccccc3)c2n1`, the Potency was inconclusive [inhibitor, single point].
With `COc1ccc(NS(=O)(=O)c2ccc(N3CCCCC3)c(NC(=O)C(C)NC(N)=O)c2)cc1` (centres undefined) the Potency was inconclusive [inhibitor, single point].
For `O=C(COC(=O)c1ccc([N+](=O)[O-])o1)NC12CC3CC(CC(C3)C1)C2`, the activity change, negative = growth inhibition was inconclusive: -35.8% [inhibitor].
In the case of `c1ccc(-c2csc3ncnc(N4CCN(Cc5ccc6c(c5)OCO6)CC4)c23)cc1`, the Potency is reported as active: 7.31 µM.
With `C[C@H]1CN([C@@H](C)CO)C(=O)c2cccc(NC(=O)Nc3ccc(C(F)(F)F)cc3)c2O[C@@H]1CN(C)C(=O)Nc1ccc(F)cc1` the Potency was active: 5.8 µM.
With `Cc1cc2cc(CNC(=O)Nc3ccccc3)ccc2n1C` the “activity change, negative = growth inhibition” value was inactive: 0.676%.
In the case of `CC(C)CC(=O)Nc1c(C(=O)N2CCN(c3ccccc3)CC2)oc2ccccc12`, the Potency is reported as active: 20.6 µM.
For `CCOCCCNC(=S)N(CCN(C)C)Cc1cc2cc3c(cc2[nH]c1=O)OCCO3`, the Potency was inconclusive [inhibitor, partial curve].
In the case of `COc1ccc(Cl)cc1NC(=O)CCc1nnc2ccc(N3CCN(C)CC3)nn12`, the “activity change, negative = growth inhibition” value is reported as inactive: 23.3%.
With `CCCC(=O)Nc1cc(-c2nnc(OC)c3ccccc23)ccc1N1CCOCC1` the Potency was inconclusive [inhibitor, single point].
With `COc1ccc(-n2c(SCC(=O)Nc3ccc(C(N)=O)cc3)nc3c([nH]c4ccccc43)c2=O)cc1OC` the Potency was inconclusive [inhibitor, single point].
With `CCS(=O)(=O)N1Cc2cc(C(=O)NCCOC)nc(-c3cccc(-c4ccncc4)c3)c2[C@@H]1CCO` the “activity change, negative = growth inhibition” value was inactive: -13.1%.
With `COc1cc2c(cc1NC(=O)COC(=O)/C=C/c1ccccc1)oc1ccccc12` the Potency was inconclusive [inhibitor, partial curve, poor fit].
With `CC(=O)c1ccc(/C=C/c2nc3ccccc3n2C)o1` the Potency was inconclusive [inhibitor, partial curve].
In the case of `Cc1ccc(C(=O)O)cc1N1C(=O)c2cccc3c([N+](=O)[O-])ccc(c23)C1=O`, the Potency is reported as active: 6.51 µM.
In the case of `CCc1nc2c(OCc3ccc(Cl)cc3)cccn2c1N(C)C(=O)c1ccc2c(c1)OCO2`, the Potency is reported as inconclusive [inhibitor, single point].
In the case of `O=C1CCCCC1C(=O)c1ccccc1` (centres undefined), the “activity change, negative = growth inhibition” value is reported as inactive: 0.152%.
With `C=CCN1C(=O)C(O)(CC(=O)c2ccccc2)c2ccccc21` (centres undefined) the Potency was active: 18.4 µM.
In the case of `COc1cc2c(=O)n(CCc3ccccc3)c(=O)n(CC(=O)Nc3ccccc3)c2cc1OC`, the “activity change, negative = growth inhibition” value is reported as inactive: -14.4%.
For `COC(=O)c1ccc(-c2nc3ccccc3[nH]2)cc1`, the Potency was active: 23.1 µM.
With `CC1CCN(C(=O)C2CCN(S(=O)(=O)c3cccc4cccnc34)CC2)CC1` the Potency was inconclusive [inhibitor, single point].
With `CC(C)[C@H](NC(=O)OCc1ccccc1)C(=O)OCc1cc(=O)oc2cc(O)ccc12` the Potency was inconclusive [inhibitor, single point].
In the case of `COC(=O)c1cc(C)[nH]c2c(C)cc3nc4ccccc4c3c12`, the Potency is reported as inconclusive [inhibitor, single point].
For `O=C(CSc1nc(Cc2ccccc2)nc2ccccc12)Nc1ccc2c(c1)OCCO2`, the activity change, negative = growth inhibition was inconclusive: -31.3% [inhibitor].
In the case of `COc1ccc(S(=O)(=O)N2CCCC(C(=O)NCc3ccco3)C2)cc1Cl` (centres undefined), the Potency is reported as inconclusive [inhibitor, single point].
In the case of `Cc1cccc(OCC(=O)Nc2nonc2NC(=O)COc2cccc(C)c2)c1`, the activity change, negative = growth inhibition is reported as inconclusive: -27.8% [inhibitor].
With `Cc1ccc(-c2ccc(NC(=O)C3C4C=CC(C4)C3C(=O)O)cc2)o1` (centres undefined) the Potency was inconclusive [inhibitor, single point].
In the case of `C=CCn1c(=O)c(C(=O)Nc2ncccc2C)c(O)c2ccccc21`, the “activity change, negative = growth inhibition” value is reported as inactive: -8.68%.
In the case of `Cc1cn([C@H]2C[C@H](O)[C@@H](CNC(=O)[C@H](N)Cc3cccnc3)O2)c(=O)[nH]c1=O`, the “activity change, negative = growth inhibition” value is reported as inactive: 2.17%.
With `C=CCNC(=O)C1CC(=O)N(c2ccc(OCC(=O)Nc3ccc(Cl)c(C(F)(F)F)c3)cc2)C1` (centres undefined) the Potency was inconclusive [inhibitor, partial curve, poor fit].
In the case of `Cc1cc(C)nc(-n2ncc3c2CC(c2ccccc2)CC3=O)n1` (centres undefined), the Potency is reported as inconclusive [inhibitor, single point].
For `COc1cccc(/C=N/n2c(N)c(S(=O)(=O)c3cccs3)c3nc4ccccc4nc32)c1`, the Potency was inconclusive [inhibitor, single point].
For `COC(=O)c1ccccc1NC(=O)N1CCc2c(sc3c2CCCC3)C1c1ccc(F)cc1` (centres undefined), the “activity change, negative = growth inhibition” value was inactive: -28.5%.
In the case of `O=C(COc1ccccc1)NC1CC(=O)N(c2ccc3c(c2)OCCO3)C1` (centres undefined), the “activity change, negative = growth inhibition” value is reported as inactive: 3%.
With `COC(=O)c1ccc(NC(=O)Cn2nnc3ccccc32)cc1` the Potency was inconclusive [inhibitor, partial curve].
For `NC(=O)CC(NC(=O)Cc1ccc(Br)cc1)c1ccc(N2CCc3ccccc3C2)c([N+](=O)[O-])c1` (centres undefined), the Potency was inconclusive [inhibitor, single point].
With `COc1ccc(C(=O)Cn2c(=O)c(-c3cc(C)ccc3NC(C)=O)nc3ccccc32)cc1` the “activity change, negative = growth inhibition” value was inactive: -16%.
For `Cn1c(NCc2ccccc2F)nc2cc(-c3cccc(C(F)(F)F)c3)sc2c1=O`, the Potency was active: 14.6 µM.
With `COc1ccc(OC)c(-n2c(C)ccc2-c2ccc(S(C)(=O)=O)cc2)c1` the Potency was inconclusive [inhibitor, single point].
For `NC(=S)C(c1ccccc1)c1ncc(C(F)(F)F)cc1Cl` (centres undefined), the “activity change, negative = growth inhibition” value was inactive: 6.53%.
In the case of `CC(C)c1ccc(Nc2c([N+](=O)[O-])c(=O)n(C)c3ccccc23)cc1`, the Potency is reported as inconclusive [inhibitor, partial curve].
With `Cc1ccc(C)c(SCC(=O)NCC(c2ccco2)N2CCCCC2)c1` (centres undefined) the Potency was active: 20.6 µM.
